Values joined by “and” are separate entries in the source; they are usually repeats but may differ in a detail not shown here. Identical values can stand only once. Counter-ions that a name gives are not always drawn. ± gives the standard deviation of the averaged measurements. The full ranking holds about 3,200 compounds; the median of “nuclei count (viability) relative to DMSO” is about 99, and the lowest 2% start at about 16. The list shows a part of the results.

The experiment relates to U2OS. Kind of experiment: nuclei count (viability) relative to DMSO (% of DMSO); higher = more viable cells. Particulars: 10 µM; 24 h. As to the method: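 Primary image-based screen in U2OS cells: compounds at 10 uM for 24 h, then a 1 h o-propargyl-puromycin (OPP) pulse, click labelling, and high-throughput microscopy. Mean cytoplasmic OPP intensity and nuclei count were normalised to DMSO wells within each plate (DMSO = 100) and averaged over triplicate plates.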
Take `CCCNC(=O)Nc1ccc(Oc2ncnc3cc(OC)c(OC)cc23)cc1Cl`: the nuclei count worked out at 104.
Turning to `CN(C)C(=O)C(=O)c1cn(C)c2cc(Cl)c(C(=O)N3CCC(Cc4ccc(F)cc4)CC3)cc12`, the nuclei count turned out to be 92.4.
As to `O=C(NCCCCN1CCN(c2cccc(Cl)c2Cl)CC1)c1ccc2c(c1)Cc1ccccc1-2`, the nuclei count worked out at 100.
As for `C[C@@H](O[C@H]1OCCN(Cc2n[nH]c(=O)[nH]2)[C@H]1c1ccc(F)cc1)c1cc(C(F)(F)F)cc(C(F)(F)F)c1` [Aprepitant (MK-0869)], the figure is 92.5.
`C[C@@H](O[C@H]1OCCN(Cc2n[nH]c(=O)[nH]2)[C@H]1c1ccc(F)cc1)c1cc(C(F)(F)F)cc(C(F)(F)F)c1` [Aprepitant] came in with a nuclei count of 92.1.
The result for `NC(=O)c1ccc(-c2nc(-c3ccccn3)c(-c3ccc4c(c3)OCO4)[nH]2)cc1` reads 102; that for `Cc1cn(-c2cc(NC(=O)c3ccc(C)c(Nc4nccc(-c5cccnc5)n4)c3)cc(C(F)(F)F)c2)cn1` [Nilotinib (AMN-107)], 91.4.
In turn, `Cc1cc2c(s1)Nc1ccccc1N=C2N1CCN(C)CC1` [Olanzapine] registered a nuclei count of 93.8.
In turn, `CN1C(=O)C(Cc2c[nH]c3ccccc23)NC1=S` (stereo unspecified) [Necrostatin-1] yielded a nuclei count of 102.
`Cc1cc(C(=O)O)sc1C(N)C(=O)O` (stereo unspecified) came in with a nuclei count of 95.8.
Turning to `COc1cc2c(NC3CCN(C)CC3)nc(N3CCCN(C)CC3)nc2cc1OCCCN(C)C`, the nuclei count stood at 103.
As for `CC=CC1=C(C(=O)O)N2C(=O)[C@@H](NC(=O)[C@H](N)c3ccc(O)cc3)[C@H]2SC1` [Cefprozil hydrate (Cefzil)], the figure is 92.9; as for `O=S(=O)(O)Oc1ccc(C(c2ccc(OS(=O)(=O)O)cc2)c2ccccn2)cc1` [Sodium Picosulfate], 104; as for `NC(=O)CC[C@H](N)C(=O)O` [L-Glutamine], 90.7.
Consider `CCn1c(-c2nonc2N)nc2c(C#CC(C)(C)O)ncc(OC[C@H]3CCCNC3)c21`, for which the nuclei count was found to be 79.3 ± 6.4.
Take `CCN(CC)CCOc1ccc(Nc2ncc3cc(-c4c(Cl)cccc4Cl)c(=O)n(C)c3n2)cc1`: the nuclei count came out at 7.54.
As to `Cc1c(O)c(=O)n(-c2ccccc2)n1C` [Antipyrine, 4-hydroxy], the nuclei count worked out at 101.
In the case of `CC(C)OC(=O)C(C)(C)Oc1ccc(C(=O)c2ccc(Cl)cc2)cc1` [Fenofibrate], the nuclei count stood at 109.
As for `Cn1cc(/C=C2\C(=O)Nc3cccnc32)c2ccccc21`, the figure is 87.7; as for `Cc1ccc(NC(=O)C2(c3ccc4c(c3)OC(F)(F)O4)CC2)nc1-c1cccc(C(=O)O)c1`, 101.
The compound `CN1CCCN(C(c2ccccc2)c2ccc(Cl)cc2)CC1` (stereo unspecified) [Homochlorcyclizine dihydrochloride] had a nuclei count of 91.1.
In turn, `C[C@@H]1C[C@H]2[C@@H]3CCC4=CC(=O)C=C[C@]4(C)[C@@]3(Cl)[C@@H](O)C[C@]2(C)[C@@]1(OC(=O)c1ccco1)C(=O)CCl` [Mometasone furoate] displayed a nuclei count of 91.7 ± 6.1.
`CCOC(=O)c1cnc2c(cnn2CC)c1NN=C(C)C` [Etazolate hydrochloride] yielded a nuclei count of 106.
Regarding `O=C(O)[C@H](CC(=O)N1C[C@H]2CCCC[C@H]2C1)Cc1ccccc1` [Mitiglinide calcium], the nuclei count came to 101.
Consider `C[C@]12CCC3=C4CCC(=O)C=C4CC[C@H]3[C@@H]1CC[C@@]2(O)CC#N` [Dienogest], for which the nuclei count came out at 107.
Regarding `COc1cc2ncnc(-n3nc(-c4ccccn4)nc3N)c2cc1OC`, the nuclei count was 106.
`Nc1ncnc2c1ncn2C1OC(COP(=O)(O)O)C(O)C1O` (stereo unspecified) [Adenosine 5'-monophosphate monohydrate] had a nuclei count of 94.7.
Take `CCCCc1ccc2[nH]c(NC(=O)OC)nc2c1` [Parbendazole]: the nuclei count was 18.3.
For the compound `COc1cc2ncnc(Nc3cccc(Cl)c3)c2cc1OC` [AG-1478 (Tyrphostin AG-1478)], the nuclei count came to 95.9.
In the case of `O=c1oc2cc(O)ccc2s1` [Tioxolone], the nuclei count came to 97.8.
The compound `CCc1cccc(CC)c1NC(=O)CN(CC(=O)O)CC(=O)O` [Etifenin] gave a nuclei count of 107.
As for `CN/C(=N\CCSCc1nc[nH]c1C)NC#N` [Cimetidine], the figure is 105 ± 5.7; as for `CN/C(=N\CCSCc1nc[nH]c1C)NC#N` [Cimetidine (Tagamet)], 98.8.
The result for `COc1ccc(C2=N[C@@H](c3ccc(Cl)cc3)[C@@H](c3ccc(Cl)cc3)N2C(=O)N2CCNC(=O)C2)c(OC(C)C)c1` [Nutlin-3] reads 73.8; that for `CC1CCN=C(N)S1` (stereo unspecified) [AMT hydrochloride], 114; that for `N#C/C(=C\c1ccc(O)c(O)c1)C(=O)NCCCc1ccccc1`, 100.
On to `C=C1c2cccc(O)c2C(O)=C2C(=O)[C@]3(O)C(O)=C(C(N)=O)C(=O)[C@@H](N(C)C)[C@@H]3[C@@H](O)[C@H]12` [Methacycline HCl (Physiomycine)], for which the nuclei count came out at 95.9.
As for `O=C(O)c1cc(/N=N/c2ccc(S(=O)(=O)Nc3ccccn3)cc2)ccc1O` [Sulfasalazine], the figure is 110; as for `NC(=O)c1ccc(I)c([N+](=O)[O-])c1` [Iniparib (BSI-201)], 95.5.
As for `O=C(O)c1ccccc1Nc1cccc2c1C(=O)c1cccc(Nc3ccccc3C(=O)O)c1C2=O`, the figure is 91.8.
Consider `CC1=C(/C=C/C(C)=C/C=C/C(C)=C/CO)C(C)(C)CCC1` [all-trans-Retinol], for which the nuclei count worked out at 103.
With `OCCn1cc(-c2cnc3nnn(Cc4ccc5ncccc5c4)c3n2)cn1`, the nuclei count is 110.
Consider `Cc1ncc([N+](=O)[O-])n1CC(C)O` (stereo unspecified) [Secnidazole], for which the nuclei count came to 90.2.
In turn, `C/C=C(/C(=C/C)c1ccc(O)cc1)c1ccc(O)cc1` [Dienestrol] showed a nuclei count of 101.
With `O=C(O)c1ccccc1OP(=O)(O)O` [Fosfosal], the nuclei count turned out to be 96.9.
As for `CC(C)C[C@H](NC(=O)N1CCCCCC1)C(=O)N[C@H](Cc1cn(C)c2ccccc12)C(=O)N[C@H](Cc1ccccn1)C(=O)O`, the figure is 100; as for `CCCCn1c(=O)c2[nH]c(C34CC5CC(CC3C5)C4)nc2n(CCCO)c1=O`, 110.
`CC1=C(/C=C/C(C)=C/C=C/C(C)=C\CO)C(C)(C)CCC1` [13-cis-Retinol] had a nuclei count of 85.
`Nc1cc(N2CCCCC2)nc(N)[n+]1[O-]` [Minoxidil] yielded a nuclei count of 99.8 ± 10.
As to `CS(=O)(=O)Nc1c(O)ccc2c1CCCC2C1=NCCN1` (stereo unspecified), the nuclei count was 94.1.
The result for `N#Cc1cc(CN2CCC(Nc3ncnc4sc(Cl)cc34)CC2)ccc1F` reads 103; that for `COc1ccc2cc([C@H](C)C(=O)O)ccc2c1` [Naproxen sodium], 109; that for `COc1ccc2cc([C@H](C)C(=O)O)ccc2c1` [Naproxen], 103.
`COc1ccc2cc([C@H](C)C(=O)O)ccc2c1` [Naproxen (Aleve)] had a nuclei count of 92.8.
`CC(C)C[C@H](NC(=O)[C@H](CCC(=O)O)NC(=O)CNC(=O)c1ccc(/C=C/C(=O)O)cc1)C(N)=O` came in with a nuclei count of 97.5.
The result for `C[C@]12CCC(=O)C=C1[C@@H]1C[C@@H]1[C@H]1[C@@H]3[C@@H]4C[C@@H]4[C@@]4(CCC(=O)O4)[C@@]3(C)CC[C@@H]12` [Drospirenone] reads 111; that for `O=C(O)c1cc(=O)[nH]c(=O)[nH]1` [Orotic acid (6-Carboxyuracil)], 108; that for `O=c1n(CCCN2CCN(c3cccc(Cl)c3)CC2)nc2ccccn12` [Trazodone hydrochloride], 107.
On to `CC1(C)S[C@@H]2[C@H](NC(=O)[C@H](N)c3ccccc3)C(=O)N2[C@H]1C(=O)O` [Ampicillin trihydrate], for which the nuclei count was determined as 102.
Regarding `CC1(C)S[C@@H]2[C@H](NC(=O)[C@H](N)c3ccccc3)C(=O)N2[C@H]1C(=O)O` [Ampicillin sodium], the nuclei count was 104.
The compound `CCOc1cc(C(=O)Nc2ccc(Cl)c(-c3nc4ccccc4[nH]3)c2)cc(OCC)c1OCC` registered a nuclei count of 79.2.
As for `CN(C)C(=O)n1nnnc1Cc1ccc(-c2ccccc2)cc1`, the figure is 20.7; as for `C=C[C@H]1CN2CC[C@H]1C[C@H]2[C@H](O)c1ccnc2ccc(OC)cc12` [Quinine HCl 2H2O], 99.5; as for `CCC(NC(C)C)C(O)c1ccc(O)c2[nH]c(=O)ccc12` (stereo unspecified) [Procaterol hydrochloride], 91.8.
`O=C(O)c1ccc2cc(-c3ccc(O)c(C45CC6CC(CC(C6)C4)C5)c3)ccc2c1` showed a nuclei count of 43.7.
As for `O=C(NC[C@H](O)CO)c1ccncc1Nc1ccc(I)cc1F`, the figure is 104; as for `Cc1ccc(C(=O)Nc2ccc(CN3CCN(C)CC3)c(C(F)(F)F)c2)cc1C#Cc1cnc2[nH]ncc2c1` [GZD824 Dimesylate], 14.1.
In the case of `Oc1ccc(-c2nc(-c3ccc(F)cc3)c(-c3ccncc3)[nH]2)cc1`, the nuclei count is 75.4 and 91.6.
Turning to `O=C(Nc1ccc(S(=O)(=O)Nc2ccccc2Cl)c(Cl)c1)c1ccccn1`, the nuclei count is 93.1.
Regarding `NC(=O)c1cnccn1` [Pyrazinamide], the nuclei count is 111.
With `CO[C@@H]1[C@H](OC(=O)/C=C/C=C/C=C/C=C/C(=O)O)CC[C@]2(CO2)[C@H]1[C@@]1(C)O[C@@H]1CC=C(C)C` [Fumagillin], the nuclei count was 89.1.
As for `Nc1nc(N)c(N=O)c(OCC2CCCCC2)n1`, the figure is 99.9 ± 0.56; as for `C#Cc1cccc(Nc2ncnc3cc(OCCOC)c(OCCO)cc23)c1` [OSI-420 (Desmethyl Erlotinib)], 90.3; as for `Cn1cnc2c(F)c(Nc3ccc(Br)cc3F)c(C(=O)NOCCO)cc21`, 89.3.
In the case of `N[C@@H](Cn1ccc(=O)n(Cc2ccccc2C(=O)O)c1=O)C(=O)O`, the nuclei count is 99.6 and 101.
`CCCCC[C@H](O)/C=C/[C@H]1[C@H](O)CC(=O)[C@@H]1C/C=C\CCCC(=O)O` [Prostaglandin E2] had a nuclei count of 104.
The result for `O=C1[C@@H]2[C@H]3CC[C@H](C3)[C@@H]2C(=O)N1C[C@@H]1CCCC[C@H]1CN1CCN(c2nsc3ccccc23)CC1` [Lurasidone HCl] reads 102; that for `N/C(=N\C(=O)c1nc(Cl)c(N)nc1N)NCc1ccccc1` [Benzamil hydrochloride], 98.7; that for `N/C(=N\C(=O)c1nc(Cl)c(N)nc1N)NCc1ccccc1` [Benzamil], 102.
Consider `O=C(CCNNC(=O)c1ccncc1)NCc1ccccc1` [Nialamide], for which the nuclei count was determined as 109.
Consider `CCCn1c(=O)c2[nH]c(C3CCCC3)nc2n(CCC)c1=O`, for which the nuclei count stood at 73.8.

For the origin of these results see the supplement of paper PMC8183993.
